Reference: PubChem BioAssay (NCI)
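These data come from cells grown in 96-well plates and exposed to compound for 48 hours at five concentrations. GI50 is the concentration that inhibits growth by half. The concentration for full growth arrest is given as TGI.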

System: NCI-H322M lung
Experiment: NCI-60 cell line screen, 48 h

SMILES | GI50 [nM] | TGI [µM]
O=C1NC(=NC23CC4CC(CC(C4)C2)C3)N/C1=C\c1ccc2ncccc2n1 | 266 | 2.8
C[C@@H](Nc1c(C#N)cnc2ccc(-c3cnc4[nH]ncc4c3)cc12)c1ccccc1 | 1550 | 6.25
N#Cc1c(NC(=O)c2ccc(C(F)(F)F)cc2C(F)(F)F)sc2c1CCC(=O)C2 | 3250 | 14.8
Cc1ccc(-c2cc(-c3cc4ccccc4nc3Cl)[nH]c(=O)n2)cc1 | 14300 | 28.4
CC(=O)Nc1cccc(Nc2nccc(N[C@@H](C)c3ccccc3)n2)c1 | 552 | > 10
